Measured values as given in the RNAGym collection of RNA variant scans (doi:10.7554/elife.90254).
Read counts are not given, so values of variants with three or more changes are uncertain.

B1: LINE1-mini (parent)
chain: GGCAGAGCUCAACACAGCGUGGCAAAGUGGCUGUGGCUAGACUGCC

Variants of: B1
Test: self-cleavage, relative activity (ratio to wild type); higher = more cleavage; in vitro, sequencing; the parent is a self-cleaving ribozyme

Variant	self-cleavage
CGCAGAGCUCAACACAGCGUGGCAAAGUGGCUGUGGAUACACUGCC [G1C C37A G40C]	0.06
GGCAGGGCUCUACACAGCGUGGCAAAGUGGCUGUGCCUAGACUGCC [A6G A11U G36C]	0.02
GGCAGAGCUCAACACAGCGUGGCAAAGUGGCUGUGCCUACACUGGA [G36C G40C C45G C46A]	0.08
GGCAGAGUUCAACACCGCCUGGCAAAGUGGCUUUGGCUAGGCUGCC [C8U A16C G19C G33U A41G]	0.04
GGCAGAACUCAAGACAGCGAGACAAAGUGGCUGUGGCUAGACUGUG [G7A C13G U20A G22A C45U C46G]	0.37
GGCGGAGCUCAACACGGCGUGUCAAAGUGGCUGUGGCUAGACUGUC [A4G A16G G22U C45U]	0.88
GGCUGAACUCAACACAGCGAGGCAAAGUGGCUGUGGCUAGACUGCC [A4U G7A U20A]	0.09
GGCAGAGCUCAACAUAGGGUGGCAAAGUGGGUCUGGUUAGAUUGCC [C15U C18G C31G G33C C37U C42U]	0.06
GGAAGUGCUCAACAAGGCGUGGCAAAGUGGCUGUGUCCUGAGUGCC [C3A A6U C15A A16G G36U U38C A39U C42G]	0.03
GGCAGAGCGCUACACAGCGUGGCAAAGGGCCUGUGGCUAGACUGCC [U9G A11U U28G G30C]	0.01
GGCAGAGCUCAACACAGAGUGGCAAAGUGGCUGAGGCUAGAUUGCC [C18A U34A C42U]	0.03
GGCAGAGCUCAACACGGCGUGUCAAACUGGCUGUGGCUAGACUGCC [A16G G22U G27C]	0.39
GGCAGAGCUCAACACAGAGUGGCAAAGUCGCUGUGGCUAGACUGCA [C18A G29C C46A]	0.32
GGCAGAGCUGAACACAGCGUGGCAAAGCGGCUGUGGCUAGACGGCA [C10G U28C U43G C46A]	0
GGCUAAGCUCAACACAGCGUGGCAAAGUGGCUUUGGGUAGACUGCC [A4U G5A G33U C37G]	0.06
GGCAGAGCUCAACACAGGGUCGCAAAGUGGCUGUCGCUAGACUGCC [C18G G21C G35C]	0.08
GGCAGAGCUCAACACAGCGAGGCAACGUGGCUGUGGCUAUAGUGCC [U20A A26C G40U C42G]	0.03
GGCAGAGCUUAACACUGCGUGGCAGAGUGGCUGUGGCUAGACUGAC [C10U A16U A25G C45A]	0
GGCAGAGCUCAAAACAGCGGGGGAAAGUGGCUGUGGCUAGACUGCC [C13A U20G C23G]	0.02

Variant	self-cleavage
GGCAGAGCUCAACAUAGCGUGGCAAAGUGGCUGUGGCUAGGCAGCC [C15U A41G U43A]	0
GGCCGAGCUCAACAUAGCGUGGCAAAGUGGCUGUGGCUAGCCUGCU [A4C C15U A41C C46U]	0.01
UGAAGAGCUCAACACAGCGUGGCAAAGUGGCUGGGGCUAGACUGCC [G1U C3A U34G]	0.19
GGCACAGCUCAACACAGCGUGGCAAAGUGGCUGUGGCAAGACUGGC [G5C U38A C45G]	0.02
GGCAGAGCUAUACACAGCGUGUCAAAGUGGCUGUCGGUAGACUGCC [C10A A11U G22U G35C C37G]	0
GGCAGAGCUCCACACAGCGUGGCAAAGUGGCUGCGGUUAGGCUGCC [A11C U34C C37U A41G]	0.04
AGCAAAGCUCAACAGAGCGUGGCGAAGUGGCUGUGGCUAGACUGCC [G1A G5A C15G A24G]	0.1
AGCAGAGCUCAAUACAGCGUGGCAAAGUGGCUGUGGCUAGAGUGCC [G1A C13U C42G]	0.06
CGCAGCGCUCCACACAGCGUGGCGAAGUGGCUGUGGCUAGACUUCC [G1C A6C A11C A24G G44U]	0.01
GGCAGAGCGCAACACAGUGUGGAAACGUGGCUGUGGCUAGACUGCC [U9G C18U C23A A26C]	0.09
GGCAGAGCUCAAGACAGCGUGGCAAAGCGGCUGUGGCUAGACUGUU [C13G U28C C45U C46U]	0.11
GGCAGAGCUCAUCACAGCGUGGCAAACUGGCUGUGGCUACACUGCC [A12U G27C G40C]	0.05
GGCAGAGCUCAACACAGACUGGCAAAGUCGCUGUGGCUAGACUGGC [C18A G19C G29C C45G]	0.13
GGCAGAGCGCAACACAGCGUGGCGAAAUGGCUGUGGCUAGACUGCC [U9G A24G G27A]	0.13
GGCAGAGCUUAACACAGCGUGGGAAAGUGGCUGUGGCUAGGCUGCC [C10U C23G A41G]	0.02
GGCAGCGAUCCACACAGCGUGGCAAAGUGGCUGUGGCUAGACUGCC [A6C C8A A11C]	0.04
GGCAGAGCUCAACAGAGCGUGGCAAAGUUGCUGUGGCUAGAAUGCC [C15G G29U C42A]	0.02
GUAAGAGCUUAACACAGGGUGGCAAAGUGGCUGUGGCUAAACUGCC [G2U C3A C10U C18G G40A]	0.01
GGCGAAGCUCAACACAGCGUGGCAAGGUGGAUGUGGCUAGACUGAC [A4G G5A A26G C31A C45A]	0.04

Variant	self-cleavage
GGCAGAGUUCAACACAUCGUGGCUAAGUGGCUGUGGCUAGACUGCC [C8U G17U A24U]	0.2
GGCAGAGCUCAACACAGCGUGGCAAAGUGCAUGUGGCUAGACAGCC [G30C C31A U43A]	0.06
GGCAGAGCUCAAAACAGCGCGACAAAGUGGCUGUGGCUAGACUGCC [C13A U20C G22A]	0.34
GGCAGUGCUCAACACAGCGUGGCAAAGGGGCUGUGCUUAGACUGCC [A6U U28G G36C C37U]	0.03
GGCAGAGCUCAAAACAGCGUGGCAUAGUGGCUGUGUCUAAACUGCC [C13A A25U G36U G40A]	0.18
AGCAGAGCUAAACACAGCGUGGCAAAGUGGCUGUGGCUAGACUCCC [G1A C10A G44C]	0.06
UGCAGAGCUCAAAACAGCGUGGCGAAGUGGCUGUGGCUAGACUGCA [G1U C13A A24G C46A]	0.04
GGCAGAGUUCAAUACAGCGUGGCAAAGUGGCUGUGGCUAGAUUGCC [C8U C13U C42U]	0.04
GGCAGUGGUCAACAUACCGUGGCAAAGUGGCUGUGGCUAGACAGCC [A6U C8G C15U G17C U43A]	0.06
GACAGAGCUCAACACAGCGUGGAAAAGUAACUGUGGCUAGACUACC [G2A C23A G29A G30A G44A]	0.64
GGCAGAGCUUAACACAGCGUGGCAAAUUAGCUGUGGAGAGACUUCC [C10U G27U G29A C37A U38G G44U]	0.02
GGCAGAGCUCAACACCGCGUGGCAAAGUGGCUGUGCCUAGACUGUC [A16C G36C C45U]	0
GGCUGAGCUCAACACACCGUGGCAAAGUGGCUGUUGCUAGACUGCC [A4U G17C G35U]	0.06
GACAGAGCUCAUCACUGAGUGGCAAAGUGGCUGUUGCUAGACUGCC [G2A A12U A16U C18A G35U]	0.17
AGCGGAGCUCAACACAGCGUGGCAAAGUGGCUUUGGCUAUACUGCC [G1A A4G G33U G40U]	0.04
GGCAGAGCUCAACCCAGCGUGGUAAAGUGGCUGUGGCUAGACUGCU [A14C C23U C46U]	0.09
GGCAGAGGUCUACACAGCGUGGCUUAGUGGCUGUGGCUAGACUGCC [C8G A11U A24U A25U]	0.04
GGCAGAGCUCAACACAUCGUGGCAAAGUGGCUGUGAUUGGACUGCC [G17U G36A C37U A39G]	0.09
